The results in this text go back to patent US11000038B2, “Pyridone compounds and agricultural and horticultural fungicides containing the same as active ingredients” (priority 2017, dated 2021).

Experiment [1] has as its system tomato late blight fungi (Phytophthora infestans). It counts as in vivo. The conditions noted are these: tomato late blight, spray treatment.
For experiment [2], the system named is cucumber anthracnose fungi (Colletotrichum orbiculare). As to the kind of experiment: Test Example H: cucumber anthracnose, spray treatment of cucumber plants. As to conditions: cucumber anthracnose, 250 ppm spray, 6 to 10 days after inoculation.
Experiment [3] concerns rice blast fungi (Magnaporthe grisea). Type of experiment: in vivo. The conditions noted are these: rice blast, spray treatment.

As for `Cc1c(Br)cccc1-n1cc(C)c(=O)c(C)c1-c1ccccc1` [Compound 565], the “Test F control value” in experiment [1] is “L (L shows the control value of 50% or less)”. In addition, in experiment [2], the “Test H control value” is “L (L shows the control value of 50% or less)”. Further, in experiment [3], the “Test A control value” is “H (H shows the control value of more than 50%)”.
For `CCc1c(-c2ccccc2)n(-c2ccccc2C)cc(C)c1=O` [Compound 566], the “Test F control value” in experiment [1] was “L (L shows the control value of 50% or less)”. The “Test H control value” in experiment [2] is “H (H shows the control value of more than 50%)”. Besides, the “Test A control value” in experiment [3] is “H (H shows the control value of more than 50%)”.
Take `O=c1c(Br)cn(-c2ccccc2)c(-c2ccc(F)cc2Cl)c1Cl` [Compound 567]: the “Test F control value” in experiment [1] is “L (L shows the control value of 50% or less)”. Further, the “Test H control value” in experiment [2] is “H (H shows the control value of more than 50%)”. The “Test A control value” in experiment [3] is reported as “H (H shows the control value of more than 50%)”.
Regarding `CCc1c(-c2ccccc2)n(-c2cc(Cl)ccc2C)cc(C)c1=O` [Compound 568], the “Test F control value” in experiment [1] was “L (L shows the control value of 50% or less)”. For the same compound, the “Test H control value” in experiment [2] is given as “H (H shows the control value of more than 50%)”. The “Test A control value” in experiment [3] is recorded as “H (H shows the control value of more than 50%)”.
Consider `O=c1c(Br)cn(-c2ccccc2)c(-c2ccc(F)cc2Br)c1Cl` [Compound 569], for which the “Test F control value” in experiment [1] was “L (L shows the control value of 50% or less)”. Also, the “Test H control value” in experiment [2] was “H (H shows the control value of more than 50%)”. In experiment [3], the “Test A control value” was “H (H shows the control value of more than 50%)”.
Consider `CCc1c(-c2c(F)cc(F)cc2F)n(-c2cc(Cl)ccc2C)cc(C)c1=O` [Compound 570], for which the “Test F control value” in experiment [1] is “L (L shows the control value of 50% or less)”. Also, the “Test H control value” in experiment [2] is given as “H (H shows the control value of more than 50%)”. The “Test A control value” in experiment [3] was “H (H shows the control value of more than 50%)”.
As to `Cc1cc(F)ccc1-c1c(C)c(=O)c(C)cn1-c1ccccc1` [Compound 571], the “Test F control value” in experiment [1] is on record as “L (L shows the control value of 50% or less)”. Also, in experiment [2], the “Test H control value” is recorded as “H (H shows the control value of more than 50%)”. In addition, in experiment [3], the “Test A control value” is recorded as “H (H shows the control value of more than 50%)”.
In the case of `CCc1c(-c2ccccc2)n(-c2cccc(Br)c2C)cc(Br)c1=O` [Compound 572], in experiment [1], the “Test F control value” is given as “L (L shows the control value of 50% or less)”. Besides, the “Test H control value” in experiment [2] is given as “L (L shows the control value of 50% or less)”. The “Test A control value” in experiment [3] is recorded as “L (L shows the control value of 50% or less)”.
Regarding `CCc1c(-c2ccccc2)n(-c2cc(F)ccc2C)cc(C)c1=O` [Compound 573], the “Test F control value” in experiment [1] is reported as “L (L shows the control value of 50% or less)”. The “Test H control value” in experiment [2] is on record as “L (L shows the control value of 50% or less)”. Further, the “Test A control value” in experiment [3] is recorded as “H (H shows the control value of more than 50%)”.
Regarding `O=c1c(Br)cn(-c2ccccc2)c(-c2ccccc2Cl)c1Cl` [Compound 574], the “Test F control value” in experiment [1] is recorded as “L (L shows the control value of 50% or less)”. Besides, in experiment [2], the “Test H control value” was “H (H shows the control value of more than 50%)”. Besides, in experiment [3], the “Test A control value” is “H (H shows the control value of more than 50%)”.
On to `Cc1cn(-c2ccccc2)c(-c2ccccc2Cl)c(C)c1=O` [Compound 575], for which, in experiment [1], the “Test F control value” is reported as “L (L shows the control value of 50% or less)”. For the same compound, the “Test H control value” in experiment [2] is “H (H shows the control value of more than 50%)”. The “Test A control value” in experiment [3] is given as “H (H shows the control value of more than 50%)”.
`O=c1c(Br)cn(-c2ccccc2)c(-c2ccccc2Br)c1Cl` [Compound 576]: the “Test F control value” in experiment [1] was “L (L shows the control value of 50% or less)”. Besides, the “Test H control value” in experiment [2] is “H (H shows the control value of more than 50%)”. The “Test A control value” in experiment [3] is reported as “L (L shows the control value of 50% or less)”.
On to `Cc1cn(-c2ccccc2)c(-c2ccccc2Br)c(C)c1=O` [Compound 578], for which, in experiment [1], the “Test F control value” is “L (L shows the control value of 50% or less)”. Also, in experiment [2], the “Test H control value” is reported as “H (H shows the control value of more than 50%)”. For the same compound, the “Test A control value” in experiment [3] is recorded as “L (L shows the control value of 50% or less)”.
As for `Cc1ccccc1-c1c(Cl)c(=O)c(Br)cn1-c1ccccc1` [Compound 579], the “Test F control value” in experiment [1] is given as “L (L shows the control value of 50% or less)”. Also, the “Test H control value” in experiment [2] is recorded as “L (L shows the control value of 50% or less)”. For the same compound, the “Test A control value” in experiment [3] is listed as “H (H shows the control value of more than 50%)”.
Consider `Cc1ccccc1-c1c(C)c(=O)c(C)cn1-c1ccccc1` [Compound 580], for which, in experiment [1], the “Test F control value” was “L (L shows the control value of 50% or less)”. Besides, the “Test H control value” in experiment [2] is given as “H (H shows the control value of more than 50%)”. In addition, the “Test A control value” in experiment [3] is on record as “H (H shows the control value of more than 50%)”.
For the compound `Cc1cn(-c2ccccc2)c(-c2ccccc2C(F)(F)F)c(C)c1=O` [Compound 581], in experiment [1], the “Test F control value” was “L (L shows the control value of 50% or less)”. Further, the “Test H control value” in experiment [2] is reported as “H (H shows the control value of more than 50%)”. Moreover, in experiment [3], the “Test A control value” is listed as “L (L shows the control value of 50% or less)”.
With `COc1ccccc1-c1c(C)c(=O)c(C)cn1-c1ccccc1` [Compound 582], in experiment [1], the “Test F control value” is given as “L (L shows the control value of 50% or less)”. Besides, the “Test H control value” in experiment [2] is “L (L shows the control value of 50% or less)”. For the same compound, the “Test A control value” in experiment [3] is given as “L (L shows the control value of 50% or less)”.
As for `Cc1cc(F)ccc1-c1c(Cl)c(=O)c(Br)cn1-c1ccccc1` [Compound 583], the “Test F control value” in experiment [1] is recorded as “L (L shows the control value of 50% or less)”. The “Test H control value” in experiment [2] is “H (H shows the control value of more than 50%)”. The “Test A control value” in experiment [3] is listed as “L (L shows the control value of 50% or less)”.
As to `Cc1cc(F)ccc1-c1c(Br)c(=O)c(Br)cn1-c1ccccc1` [Compound 584], in experiment [1], the “Test F control value” was “L (L shows the control value of 50% or less)”. Further, the “Test H control value” in experiment [2] is “H (H shows the control value of more than 50%)”. The “Test A control value” in experiment [3] is recorded as “H (H shows the control value of more than 50%)”.
As for `Cc1cn(-c2ccccc2)c(-c2ccc(F)cc2Br)c(C)c1=O` [Compound 585], the “Test F control value” in experiment [1] was “L (L shows the control value of 50% or less)”. Moreover, the “Test H control value” in experiment [2] is on record as “H (H shows the control value of more than 50%)”. Further, in experiment [3], the “Test A control value” is on record as “L (L shows the control value of 50% or less)”.
On to `Cc1cn(-c2ccccc2)c(-c2ccc(Cl)cc2F)c(C)c1=O` [Compound 586], for which, in experiment [1], the “Test F control value” was “L (L shows the control value of 50% or less)”. For the same compound, the “Test H control value” in experiment [2] was “H (H shows the control value of more than 50%)”. Besides, the “Test A control value” in experiment [3] is listed as “H (H shows the control value of more than 50%)”.
Consider `O=c1c(Br)cn(-c2ccccc2)c(-c2ccc(Cl)cc2F)c1Cl` [Compound 587], for which the “Test F control value” in experiment [1] is given as “L (L shows the control value of 50% or less)”. Also, the “Test H control value” in experiment [2] is given as “H (H shows the control value of more than 50%)”. In experiment [3], the “Test A control value” is “H (H shows the control value of more than 50%)”.
In the case of `O=c1c(Br)cn(-c2ccccc2)c(-c2ccc(Cl)cc2Cl)c1Cl` [Compound 588], in experiment [1], the “Test F control value” is reported as “L (L shows the control value of 50% or less)”. Further, in experiment [2], the “Test H control value” is reported as “H (H shows the control value of more than 50%)”. The “Test A control value” in experiment [3] is on record as “H (H shows the control value of more than 50%)”.
`Cc1cn(-c2ccccc2)c(-c2c(F)cccc2Cl)c(C)c1=O` [Compound 589]: the “Test F control value” in experiment [1] is “L (L shows the control value of 50% or less)”. Moreover, the “Test H control value” in experiment [2] was “H (H shows the control value of more than 50%)”. The “Test A control value” in experiment [3] is on record as “H (H shows the control value of more than 50%)”.
As for `O=c1c(Br)cn(-c2ccccc2)c(-c2c(F)cccc2Cl)c1Cl` [Compound 590], the “Test F control value” in experiment [1] was “L (L shows the control value of 50% or less)”. In addition, the “Test H control value” in experiment [2] is reported as “H (H shows the control value of more than 50%)”. For the same compound, the “Test A control value” in experiment [3] is on record as “H (H shows the control value of more than 50%)”.
For the compound `COc1cccc(F)c1-c1c(C)c(=O)c(C)cn1-c1ccccc1` [Compound 591], the “Test F control value” in experiment [1] is recorded as “L (L shows the control value of 50% or less)”. Also, in experiment [2], the “Test H control value” was “L (L shows the control value of 50% or less)”. In addition, in experiment [3], the “Test A control value” is given as “L (L shows the control value of 50% or less)”.
For the compound `Cc1c(-c2ccc(F)cc2F)n(-c2ccccc2)cc(Br)c1=O` [Compound 592], the “Test F control value” in experiment [1] is recorded as “L (L shows the control value of 50% or less)”. The “Test H control value” in experiment [2] is “H (H shows the control value of more than 50%)”. The “Test A control value” in experiment [3] is given as “L (L shows the control value of 50% or less)”.
In the case of `Cc1c(-c2ccc(F)cc2F)n(-c2ccccc2)cc(I)c1=O` [Compound 593], the “Test F control value” in experiment [1] is on record as “L (L shows the control value of 50% or less)”. Also, the “Test H control value” in experiment [2] was “L (L shows the control value of 50% or less)”. In addition, the “Test A control value” in experiment [3] is reported as “H (H shows the control value of more than 50%)”.
As to `COc1ccc(-c2c(C)c(=O)c(C)cn2-c2ccccc2)c(Br)c1` [Compound 594], the “Test F control value” in experiment [1] was “H (H shows the control value of more than 50%)”. Also, the “Test H control value” in experiment [2] was “H (H shows the control value of more than 50%)”. Also, the “Test A control value” in experiment [3] is “L (L shows the control value of 50% or less)”.
Turning to `Cc1cn(-c2ccccc2)c(-c2ccc(Cl)cc2Cl)c(C)c1=O` [Compound 595], the “Test F control value” in experiment [1] is “L (L shows the control value of 50% or less)”. Further, in experiment [2], the “Test H control value” is on record as “H (H shows the control value of more than 50%)”. Also, in experiment [3], the “Test A control value” was “H (H shows the control value of more than 50%)”.
